Assay results: patent publication US20050089932A1 (AVIDIA RESEARCH INSTITUTE, published 2005)

Target: T1, human IgE (human, UniProt P01854-1 1-428)
T1 construct: Immobilized on plates or on a CM5 chip; variable regions and light chain not described
T1 chain (looked up): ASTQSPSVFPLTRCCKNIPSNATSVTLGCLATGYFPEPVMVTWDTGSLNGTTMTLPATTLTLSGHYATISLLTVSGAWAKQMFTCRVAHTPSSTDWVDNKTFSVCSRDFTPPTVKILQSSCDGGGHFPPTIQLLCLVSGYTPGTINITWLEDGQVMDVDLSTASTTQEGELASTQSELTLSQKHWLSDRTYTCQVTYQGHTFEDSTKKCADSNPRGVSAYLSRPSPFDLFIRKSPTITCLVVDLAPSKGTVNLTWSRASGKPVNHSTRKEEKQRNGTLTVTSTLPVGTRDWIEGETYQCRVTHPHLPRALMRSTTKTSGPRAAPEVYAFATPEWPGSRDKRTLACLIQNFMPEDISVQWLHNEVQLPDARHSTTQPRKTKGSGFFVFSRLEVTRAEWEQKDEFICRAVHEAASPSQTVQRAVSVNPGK
Assay: Biacore, human IgE on CM5 chip

B1: IgE-1.23.23 (designed binder)
chain: CPAGQFRCENGRCLPPPWRCDGVNDCEDNSDEAGCGDSHILPFSTPGPSTCPANEFQCRNSSTCIPRRWLCDGDDDCGDGSDETGCSAPASEPPGSLCPAGQFRCENGRCLPPPWRCDGVNDCEDNSDEAGCGDSHILPFSTPGPSTCPANEFQCRNSSTCIPRRWLCDGDDDCGDGSDETGCSAPASEPPGSL
- Kd: 150 nM
